# In PubChem BioAssay (NCI):
# Several values for one entry are separate records, joined by “and”; a condition that tells them apart may be missing. Equal values may be shown once.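 Tested at 5 concentrations; 48 h exposure; 96-well plates; endpoints linearly interpolated, else capped at highest concentration. At the GI50, growth is halved. At the TGI there is no net growth.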
# System: NCI-H322M lung
# Test: DTP human tumour cell line panel, 48 h
SMILES,TGI,GI50
CN(C)CC(/C(Cc1ccccc1)=N\NC(=O)C[n+]1ccccc1)c1ccccc1 (stereo not drawn),> 100 µM,–
O=c1c2ccccc2oc2nc3n(c(=O)c12)CCCS3,> 100 µM,–
O=C(O)CN(c1ccccc1)S(=O)(=O)c1ccc(NC(=O)c2ccccc2)cc1,> 100 µM,–
CNC(=O)c1ccccc1-[s+]1c2ccccc2c(=O)n1C (stereo not drawn),> 100 µM,–
CC1=C(C(=O)NCc2ccccc2)C(c2ccc(C3C(C(=O)NCc4ccccc4)=C(C)NC(C)=C3C(=O)NCc3ccccc3)cc2)C(C(=O)NCc2ccccc2)=C(C)N1,32 µM,–
[O-]/[N+](=C\c1ccccc1)[C@H](COCc1ccccc1)c1ccccc1,> 100 µM,–
C=C(C)C(=O)CC[C@@H](C)[C@H]1[C@@H](OC2OC(CO)C(O)C(O)C2O)C[C@@]2(C)[C@@H]3C[C@H](O)C4C(C)(C)[C@@H](OC5OC(CO)C(O)C(O)C5O)CC[C@@]45C[C@@]35CC[C@]12C (stereo partly drawn),> 100 µM,–
COc1ccc(Cn2c(C)nc3c2C(=O)c2ccccc2C3=O)cc1,> 75 µM,–
Cc1nc2sccn2c1/C=C1/C(=O)Nc2ccccc21,> 100 µM,30.6 µM
CC(=O)N1CCN(C2=Nc3ccccc3CO2)C1=S,> 100 µM,> 100 µM
CC1=NN(c2nc(N)nc(-c3ccccc3S(N)(=O)=O)n2)C(C)(C)C1,> 100 µM,–
O=C1C=CC2CCC1C2 (stereo not drawn),82.8 µM,–
CC[C@@]1(O)C(=O)OCc2c1cc1n(c2=O)Cc2c-1nc1ccccc1c2/C=N\NC(=O)C(N)CC(C)C (stereo partly drawn),> 100 µM,–
CC1=CC2CC(C)=C(CC[C@]3(C)CC[C@H]([C@@H](C)C(=O)O)OO3)C(C)(C)C2CC1 (stereo partly drawn),2.88 µM,–
O=C1N[C@H]2c3c(Cl)sc(Cl)c3/C(=N/O)[C@H]2O1,> 100 µM,–
CC1=NN(C(=O)CSc2nnc(SCC(=O)N3N=C(C)CC3(O)c3ccccc3)s2)C(O)(c2ccccc2)C1 (stereo not drawn),> 100 µM,–
C=CC(=O)Nc1ccc(Nc2nccc(-c3ccc(N4CCCC4)c(C#N)c3)n2)cc1,> 25 µM,18.8 µM
N#Cc1cc(C#N)c(Cl)nc1N,> 10 µM,–
O=C1C(N2CCCC2)=CC(=O)c2c(O)c(N3CCCC3)c(Cl)c(O)c21,> 10 µM,–
O=C(Nc1cccc2ccccc12)Oc1ccccc1C1CCCCC1,41.8 µM,–
O=C1OC(=O)c2c1c(-c1ccccc1)cn2-c1ccc(Cl)cc1,> 100 µM,–
COC(=O)N1CC2(CO)C3CC=C(C(=O)Nc4ccccc4Br)C2C1C3Br (stereo not drawn),> 50 µM,–
COc1cccc(C2CC(c3cc(OC)c(OC)c(OC)c3)=NN2)c1 (stereo not drawn),> 100 µM,31 µM

SMILES,TGI,GI50
CN1C(=O)c2c(ccc3c2OCO3)C2C(O)Cc3cc4c(cc3C21)OCO4 (stereo not drawn),> 100 µM,–
CC(C)=CCN=C(N)N,> 100 µM,–
CCCCNC1CCC2(SCCS2)c2[nH]c3ccccc3c21 (stereo not drawn),> 100 µM,–
Cc1ccccc1NC(=S)Nc1ccccn1,> 100 µM,> 100 µM
C/C=C/[C@@]1(OC(=O)c2ccccc2)C[C@@H]2CCCC[C@@H]21,33.2 µM,–
COc1cc(/C=C/C(=O)OCC23CC[C@@]4(C(=O)O)CCC(C)[C@H](C)C4C2=CCC2[C@@]4(C)CC[C@H](O)C(C)(C)C4CC[C@]23C)ccc1O (stereo partly drawn),51.9 µM,–
CNC(=O)c1cc(COc2nnc(Nc3ccc(Cl)cc3)c3ccoc23)ccn1,32.8 µM and > 10 µM,8 µM and > 10 µM
Clc1ccc(-c2ccc(-c3nnc(CCc4nnc(-c5ccc(-c6ccc(Cl)cc6)o5)o4)o3)o2)cc1,> 100 µM,–
O=C(Cc1ccccc1)NCCc1ccc(O)c(O)c1,> 100 µM,–
N#Cc1cccc(N2C(=O)c3c(c(-c4ccccc4)c(-c4ccc(Sc5ccc(-c6c(-c7ccccc7)c7c(c(-c8ccccc8)c6-c6ccccc6)C(=O)N(c6cccc(C#N)c6)C7=O)cc5)cc4)c(-c4ccccc4)c3-c3ccccc3)C2=O)c1,> 100 µM,–
C=CCC1(O)c2ccccc2C(=O)c2c(O)ccc(O)c21 (stereo not drawn),> 94.5 µM,–
CC1CC2C3CC(F)C4=CC(=O)C=CC4(C)C3(F)C(O)CC2(C)C1(O)C(=O)COC(=O)C(C)(C)C (stereo not drawn),> 100 µM,–
CCc1nn(CN2CCN(C)CC2)c(=S)n1/N=C\c1ccc(-c2ccc([N+](=O)[O-])cc2)o1,> 100 µM,–
C#CCC[C@@H]1O[C@@]1(C)CC/C=C(\C)CC/C=C/C=O,> 100 µM,–
Cc1ccc(S(=O)(=O)c2scc(-c3ccccc3)c2C)cc1,> 100 µM,–
Cc1ccc(C)n1-c1ccccc1C1SCCCS1,> 100 µM,–
Cc1ccc(C)c(NC(=O)C(=O)CC(=O)C2CCOC2=O)c1 (stereo not drawn),> 100 µM,–
S=c1sc2c(Cl)ncnc2n1-c1ccccc1,26.4 µM,–
O=C(Cn1c(=O)oc2ccc(C(=O)c3ccc(F)cc3)cc21)c1ccc([N+](=O)[O-])cc1,> 100 µM,–
CCSc1nnc2c(-c3ccccc3)n[nH]c2n1,> 100 µM,–
CCC1(O)CC(OC2CC(N(C)C)C(OC3CC4OC5CC(=O)C(C)OC5OC4C(C)O3)C(C)O2)c2c(cc3c(c2O)C(=O)c2c(O)ccc(O)c2C3=O)C1C(=O)OC (stereo not drawn),–,0.00302 µM and 0.00223 µM and 0.00828 µM
COc1cc(CCc2cccnc2)cc(OC)c1OC,> 100 µM,–
COc1cccc([C@H]2CC(=O)c3cc4c(cc3N2)OCO4)c1,> 100 µM,0.0722 µM

SMILES,TGI,GI50
Nc1ccn(C2OC(CO)C(O)C2F)c(=O)n1 (stereo not drawn),> 5000 µM,> 5000 µM
O=C1NC(N/N=C\C(O)C(O)C(O)CO)=N/C1=C/c1ccccc1 (stereo not drawn),> 100 µM,–
NNC(=S)N/N=C(\CCCC(=O)NCCc1ccccc1)CC(=O)c1ccccc1,> 100 µM,–
COc1cccc2c1OC1c3ccccc3OCC1C2 (stereo not drawn),> 100 µM,–
COc1ccc(-c2nc(N)c(C#N)c3c2CCS(=O)(=O)c2ccc(C)cc2-3)cc1OC,96.4 µM,–
Cc1ccc(C(=O)N(CCCN)[C@@H](c2nc3cc(Cl)ccc3c(=O)n2Cc2ccccc2)C(C)C)cc1,2.86 µM and 1.57 µM,< 0.01 µM
O=C(COc1ccc(OCC(=O)N2C(=O)CC(=O)N(c3ccccc3)C2=S)cc1)N1C(=O)CC(=O)N(c2ccccc2)C1=S,> 100 µM,–
C[n+]1c(/C=C\C=C\N2CCCCC2)sc2ccccc21,14.5 µM,1.03 µM
COc1cc(/C(Cl)=C/C=C/C(=O)c2c(C)[n+]([O-])c3ccc(Cl)cc3[n+]2[O-])cc(OC)c1OC,> 50 µM,> 50 µM
COc1c2cc([N+](=O)[O-])cc1CNC(=O)CN1CCOCCOCCN(CCOCCOCC1)CC(=O)NC2,> 100 µM,–
CC[P+](C)(Cc1ccccc1)c1ccccc1 (stereo not drawn),> 100 µM,–
COc1ccc(-c2[nH]ncc2-c2cc3c(c(OC)c2)OCC(=O)N3)cc1,> 100 µM,3.09 µM
CC(=O)C1=C(O)C=C2Oc3c(C(=O)/C=C/c4cc(C(F)(F)F)cc(C(F)(F)F)c4)c(O)c(C)c(O)c3[C@]2(C)C1=O,2.75 µM,0.508 µM
CC(C)[C@](O)(c1ccc2cc(OC(F)F)c(OC(F)F)cc2c1)c1cn[nH]n1,79.2 µM and 42.8 µM,19.9 µM and 16.6 µM
CCOC(=O)c1cnc(-n2[nH]c(C)c(CCO)c2=O)[nH]c1=O,> 100 µM,–
C=C1C(=O)OC2/C=C(\C)C(OC(C)=O)C3OC3C(C)(O)CC(OC(=O)/C(C)=C/C)C12 (stereo not drawn),32.1 µM,–
c1ccc(SC2(Sc3ccccc3)CCCC2)cc1,> 100 µM,–
CC(=O)NC1C(OCc2ccccc2)OC(CO)C(O)C1OCC(=O)NC(C)C(=O)NC(CCC(=O)NCCCCNc1ccc([N+](=O)[O-])c2[nH]c3ccccc3c(=O)c12)C(N)=O (stereo not drawn),> 100 µM,–
O=C(Nc1c(O)[nH]c(=S)[nH]c1=O)c1ccccn1,> 100 µM,–
CN(C)c1ccc2c(c1)C(=O)N(OS(=O)(=O)c1ccc([N+](=O)[O-])cc1)C2=O,> 100 µM,–
CC1(C)O[C@H]2Cn3c(c(C#N)c4ccccc43)[C@H]2O1,> 100 µM,–
CCCC(=O)O,12300 µM,–
O=C(O)c1ccccc1.[Ag],> 58.8 µM,–
